Reference: the antibiotic and cytotoxicity screens of Wong et al. (2023)
The other results are listed elsewhere or left out.

Tested on: S. aureus RN4220
Assay: growth inhibition call (relative growth <= 0.2)
Conditions: 50 µM

Growth inhibition call, inactive:
O=C(O)[C@H](O)[C@@](O)(Cc1ccc(O)cc1)C(=O)O
COc1ccc(NC(=O)Nc2ccc3c(c2)CC(=O)N([C@H](C)CO)C[C@H](C)[C@@H](CN(C)Cc2ccc(C(=O)Nc4ccccc4N)cc2)O3)cc1
C[C@@H]1CCCCO[C@@H](CN(C)S(=O)(=O)c2ccc(Cl)cc2)[C@@H](C)CN([C@@H](C)CO)C(=O)c2cc(NC(=O)c3ccccc3)ccc2O1
C[C@H]1CCCCO[C@H](CN(C)S(=O)(=O)c2ccccc2)[C@@H](C)CN([C@@H](C)CO)C(=O)c2cc(NC(=O)Nc3ccc(C(F)(F)F)cc3)ccc2O1
C[C@H](CO)N1C[C@H](C)[C@H](CN(C)C(=O)Nc2ccc(C(F)(F)F)cc2)Oc2c(NC(=O)c3nc4ccccc4s3)cccc2C1=O
COc1ccc(S(=O)(=O)N(C)C[C@H]2OCCCC[C@H](C)Oc3ccc(NC(=O)Nc4ccc5c(c4)OCO5)cc3C(=O)N([C@H](C)CO)C[C@@H]2C)cc1
COc1ccc(NC(=O)N(C)C[C@H]2Oc3c(NS(C)(=O)=O)cccc3C(=O)N([C@@H](C)CO)C[C@@H]2C)cc1
O=C(C[C@H]1C[C@@H]2c3cc(NC(=O)Nc4ccc(C(F)(F)F)cc4)ccc3O[C@@H]2[C@H](CO)O1)NCc1cc(F)ccc1F
C[C@@H]1CN([C@@H](C)CO)C(=O)c2cc(NC(=O)Nc3ccccc3)ccc2O[C@@H](C)CCCCO[C@H]1CN(C)S(=O)(=O)c1cccc(F)c1
Cn1c(=O)n2n(c1=O)[C@H](C1CC1)C=C1CN3[C@@H]([C@H](CCn4cc(-c5ccc(C(=O)NO)cc5)nn4)OC(=O)[C@@H]3Cc3ccccc3)[C@@H]12
Cn1c(=O)c2c(NCCO)ccnc2n(C)c1=O
C[C@H](CO)N1C[C@H](C)[C@@H](CN(C)S(=O)(=O)c2ccc(F)cc2)OCCCC[C@H](C)Oc2ccc(NC(=O)Nc3ccc(F)cc3)cc2C1=O
C[C@@H]1CN([C@@H](C)CO)C(=O)Cc2cc(NS(=O)(=O)c3ccccc3)ccc2O[C@@H]1CN(C)Cc1ccc(C(=O)O)cc1
Cc1ccc(S(=O)(=O)NC(=O)NN2CC3CCCC3C2)cc1 (stereo not given)
C[C@@H]1CN([C@@H](C)CO)C(=O)c2cc(NC(=O)Nc3ccccc3)ccc2O[C@H]1CN(C)C(=O)Nc1ccc(C(F)(F)F)cc1
COc1ccc(S(=O)(=O)N(C)C[C@H]2OCCCC[C@H](C)Oc3ccc(NC(=O)C4CCCCC4)cc3C(=O)N([C@@H](C)CO)C[C@H]2C)cc1
C[C@@H]1CCCCO[C@H](CN(C)S(=O)(=O)c2cn(C)cn2)[C@@H](C)CN([C@@H](C)CO)C(=O)c2cc(NS(C)(=O)=O)ccc2O1
Cc1noc(C)c1NC(=O)Nc1ccc2c(c1)C(=O)N([C@@H](C)CO)C[C@@H](C)[C@@H](CN(C)Cc1ccc(C(=O)Nc3ccccc3N)cc1)O2
CCCNc1nc(=O)c(C)n[nH]1
Nc1nncn1C(=O)c1ccccc1F
